According to patent publication US20110083201:

How the values were obtained:
[1] = system: T1, serpina3n-HA secreted by stably transfected Jurkat cells (clone SerE12-HA), in conditioned medium
T1 sequence: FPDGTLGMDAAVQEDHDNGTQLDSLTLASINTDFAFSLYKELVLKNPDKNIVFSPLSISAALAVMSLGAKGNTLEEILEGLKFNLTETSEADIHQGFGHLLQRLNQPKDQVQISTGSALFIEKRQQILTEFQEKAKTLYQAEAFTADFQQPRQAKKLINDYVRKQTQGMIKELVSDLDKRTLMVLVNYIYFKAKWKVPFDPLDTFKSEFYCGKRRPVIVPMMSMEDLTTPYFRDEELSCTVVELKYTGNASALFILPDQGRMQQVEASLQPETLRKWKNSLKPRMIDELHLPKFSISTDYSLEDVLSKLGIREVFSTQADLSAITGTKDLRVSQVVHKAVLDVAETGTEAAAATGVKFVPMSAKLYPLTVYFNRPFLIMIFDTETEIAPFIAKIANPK

[2] = system: T2, mouse serpina3n secreted by Sertoli cells (in Sertoli cell-conditioned medium, SCCM)
T2 sequence: T1 sequence

## human granzyme B purified from the cytolytic granules of YT INDY cells (sequence left out)
[1]
  granzyme B enzymatic activity (cleavage of IEPD-pNA) after pre-incubation with increasing volumes of conditioned medium: SerE12-HA conditioned medium also inhibited granzyme B enzymatic activity in a dose-dependent manner
[2]
  granzyme B activity (cleavage of IEPD-pNA, absorbance at 405 nm): significant reduction (83% decrease) of granzyme B activity
